Measurements: PMC9019090
Results are given in words; binding and its absence hold for the method and conditions named. Binding seen in cells or lysates may run through a third protein. Some results given as binding are weak or reduced against the parent protein; the word gives no strength. For some of these results: Sequences can lack the tags named with a protein. Blank lines part the entries; values can stand above or below the molecule they belong to.

Sequences of proteins named here, by UniProt entry; tags and fusion partners are left off. A change or cut given only in a name is not applied to a line headed by its entry.
UniProt Q969H0: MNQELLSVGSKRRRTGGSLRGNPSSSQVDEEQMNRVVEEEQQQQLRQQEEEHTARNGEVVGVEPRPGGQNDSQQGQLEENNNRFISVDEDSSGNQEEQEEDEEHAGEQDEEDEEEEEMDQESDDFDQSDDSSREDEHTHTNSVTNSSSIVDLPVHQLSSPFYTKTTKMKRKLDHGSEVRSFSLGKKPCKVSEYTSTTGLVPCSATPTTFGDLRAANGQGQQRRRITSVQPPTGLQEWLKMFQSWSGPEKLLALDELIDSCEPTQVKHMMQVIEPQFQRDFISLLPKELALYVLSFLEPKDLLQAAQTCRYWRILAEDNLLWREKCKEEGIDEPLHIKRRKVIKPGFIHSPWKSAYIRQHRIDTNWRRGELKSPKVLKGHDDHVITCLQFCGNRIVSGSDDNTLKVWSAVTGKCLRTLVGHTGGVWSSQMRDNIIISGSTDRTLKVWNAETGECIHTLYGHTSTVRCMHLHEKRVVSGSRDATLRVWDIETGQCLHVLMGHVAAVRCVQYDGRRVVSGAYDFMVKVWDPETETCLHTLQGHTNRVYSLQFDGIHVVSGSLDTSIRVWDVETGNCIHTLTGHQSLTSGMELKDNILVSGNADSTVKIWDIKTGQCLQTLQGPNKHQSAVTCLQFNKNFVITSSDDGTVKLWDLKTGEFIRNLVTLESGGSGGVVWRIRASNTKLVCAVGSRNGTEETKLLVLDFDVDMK

What was measured:
[1] = target: T1, nuclear receptor ERRα (endogenous, HepG2) (human (endogenous in HepG2)) (UniProt P11474); experiment: co-IP; endogenous ERRα and FBXW7 in GSK3β-silenced HepG2 cells treated with MG132 (Fig. 4h)
T1 sequence: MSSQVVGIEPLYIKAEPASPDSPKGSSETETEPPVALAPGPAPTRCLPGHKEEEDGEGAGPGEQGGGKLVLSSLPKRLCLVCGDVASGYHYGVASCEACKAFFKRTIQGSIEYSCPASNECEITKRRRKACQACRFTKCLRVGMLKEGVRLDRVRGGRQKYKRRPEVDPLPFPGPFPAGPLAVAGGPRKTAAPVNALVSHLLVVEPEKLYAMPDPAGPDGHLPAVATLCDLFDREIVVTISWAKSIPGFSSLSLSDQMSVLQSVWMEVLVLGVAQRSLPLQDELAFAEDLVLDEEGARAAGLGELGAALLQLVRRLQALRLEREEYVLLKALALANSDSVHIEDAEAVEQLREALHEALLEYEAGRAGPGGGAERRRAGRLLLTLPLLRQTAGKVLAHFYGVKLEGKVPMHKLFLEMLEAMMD

[2] = target: T1, nuclear receptor ERRα (endogenous, HepG2) (human (endogenous in HepG2)); experiment: co-IP; endogenous ERRα and FBXW7 in HepG2 cells treated with MG132 (Fig. 4c; control cells of Fig. 4h); lysates in buffer K with 0.3% CHAPS, protein A Dynabeads pre-bound with antibody, washed with PBS-T, immunoblot
[3] = target: T2, ERRα (in HEK293T cells transfected with HA-GSK3β WT or CA mutant, Fig. 4i) (UniProt P11474); experiment: co-IP; FBXW7 and ERRα in HEK293T cells transiently transfected with HA-GSK3β WT or CA (S9A) mutant, treated with MG132 prior to collection (Fig. 4i)
T2 sequence: T1 sequence

Flag-ERRα WT = target: T3, Flag-ERRα WT (UniProt P11474); experiment: co-IP; co-IP and reciprocal co-IP from lysates of 293T cells transiently co-expressing V5-FBXW7 and Flag-ERRα WT or 3SA mutant (Fig. 4d); buffer K with 0.3% CHAPS, protein A Dynabeads
T3 sequence: T1 sequence

[4] = target: T4, ERRα (co-IP with the 6 E3 candidates, Supplementary Fig. 4e) (UniProt P11474); experiment: co-IP; the 6 E3 candidates and ERRα (Supplementary Fig. 4e); cells and constructs not shown
T4 sequence: T1 sequence

V5-FBXW7 = V5-FBXW7 (UniProt Q969H0); experiment: co-IP; co-IP and reciprocal co-IP from lysates of 293T cells transiently co-expressing V5-FBXW7 and Flag-ERRα WT or 3SA mutant (Fig. 4d); buffer K with 0.3% CHAPS, protein A Dynabeads

- binding [2]: binds
Molecule: E3 ligase FBXW7 (endogenous, HepG2) (from UniProt Q969H0 1-707)
- binding [1]: no binding (condition: in GSK3β-silenced HepG2 cells)

- binding [3]: binds
Molecule: FBXW7 (in HEK293T cells transfected with HA-GSK3β WT or CA mutant, Fig. 4i) (from UniProt Q969H0 1-707)

- binding (Flag-ERRα WT): binds
- binding [4]: binds
Molecule: V5-FBXW7 (from UniProt Q969H0 1-707)

- binding [4]: binds
B1: E3 ligase FBXO11 (protein, UniProt Q86XK2 1-927)
chain: MNSVRAANRRPRRVSRPRPVQQQQQQPPQQPPPQPPQQQPPQQQPPPPPQQQQQQQPPPPPPPPPPLPQERNNVGERDDDVPADMVAEESGPGAQNSPYQLRRKTLLPKRTACPTKNSMEGASTSTTENFGHRAKRARVSGKSQDLSAAPAEQYLQEKLPDEVVLKIFSYLLEQDLCRAACVCKRFSELANDPILWKRLYMEVFEYTRPMMHPEPGKFYQINPEEYEHPNPWKESFQQLYKGAHVKPGFAEHFYSNPARYKGRENMLYYDTIEDALGGVQEAHFDGLIFVHSGIYTDEWIYIESPITMIGAAPGKVADKVIIENTRDSTFVFMEGSEDAYVGYMTIRFNPDDKSAQHHNAHHCLEITVNCSPIIDHCIIRSTCTVGSAVCVSGQGACPTIKHCNISDCENVGLYITDHAQGIYEDNEISNNALAGIWVKNHGNPIIRRNHIHHGRDVGVFTFDHGMGYFESCNIHRNRIAGFEVKAYANPTVVRCEIHHGQTGGIYVHEKGRGQFIENKIYANNFAGVWITSNSDPTIRGNSIFNGNQGGVYIFGDGRGLIEGNDIYGNALAGIQIRTNSCPIVRHNKIHDGQHGGIYVHEKGQGVIEENEVYSNTLAGVWVTTGSTPVLRRNRIHSGKQVGVYFYDNGHGVLEDNDIYNHMYSGVQIRTGSNPKIRRNKIWGGQNGGILVYNSGLGCIEDNEIFDNAMAGVWIKTDSNPTLRRNKIHDGRDGGICIFNGGRGLLEENDIFRNAQAGVLISTNSHPILRKNRIFDGFAAGIEITNHATATLEGNQIFNNRFGGLFLASGVNVTMKDNKIMNNQDAIEKAVSRGQCLYKISSYTSYPMHDFYRCHTCNTTDRNAICVNCIKKCHQGHDVEFIRHDRFFCDCGAGTLSNPCTLAGEPTHDTDTLYDSAPPIESNTLQHN

- binding (V5-FBXW7): binds
B2: Flag-ERRα WT (protein, UniProt P11474 1-423)
chain: T1 sequence
